Laboratory results from the supplement of paper PMC3334620.
Over roughly 33,000 sequences, “E-score (-0.5 to 0.5)” has its median near -0.04; the highest 2% begin near 0.36. The list shows a part of the results.

The sequences below were run against T1, Hmlalpha2 (UniProt P0CY09) (assay: PBM E-score (8-mer binding enrichment) (E-score (-0.5 to 0.5)); higher = stronger / more preferred TF binding; most listed sequences are background and not binding sites). Conditions: protein concentration: 200 nM; construct: GST-full length.
T1 sequence: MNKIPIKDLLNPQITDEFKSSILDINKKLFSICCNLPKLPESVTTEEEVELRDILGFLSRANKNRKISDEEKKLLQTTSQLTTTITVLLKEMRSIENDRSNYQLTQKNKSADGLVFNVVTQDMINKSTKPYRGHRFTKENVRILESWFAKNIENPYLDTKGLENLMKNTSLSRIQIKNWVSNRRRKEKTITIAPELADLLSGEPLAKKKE
Outline: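 Universal all-10-mer Agilent arrays, fresh or stripped once, were converted to double-stranded form by primer extension. GST-tagged yeast transcription factors from PURExpress in vitro transcription/translation, full-length or DNA-binding domain only, were applied at about 100-200 nM and detected with fluorescent anti-GST. After masliner normalisation, the Universal PBM Analysis Suite scored each ungapped eight-base word together with its reverse complement by E-score.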
For AGCGCACA, the “PBM E-score” value was -0.14. With GATAAGCC the “PBM E-score” value was -0.323. ACCCACCG was tested, and the “PBM E-score” value was -0.218. In the case of CCGCTCCA, the “PBM E-score” value is reported as -0.274. For ATTCCACC, the “PBM E-score” value was 0.0297. ACTGACAC was tested, and the “PBM E-score” value was 0.122. In the case of AAGGGAAT, the “PBM E-score” value is reported as -0.16. For GAGCCGAA, the “PBM E-score” value was -0.227. For TGGCGTAA, the “PBM E-score” value was 0.108. In the case of CCTCAAGG, the “PBM E-score” value is reported as -0.235. With AGGCGTGA the “PBM E-score” value was -0.155. With CAAGGCAG the “PBM E-score” value was -0.0498. In the case of AAAGAGGC, the “PBM E-score” value is reported as -0.323. In the case of CGATCCAC, the “PBM E-score” value is reported as 0.0851. ATGCAGGC was tested, and the “PBM E-score” value was -0.118. TTCCACAA was tested, and the “PBM E-score” value was 0.0807. For TACAGCCA, the “PBM E-score” value was -0.0918. In the case of CGTAATAA, the “PBM E-score” value is reported as 0.378. For CGCACTAA, the “PBM E-score” value was -0.0506. For ACGAGGAC, the “PBM E-score” value was -0.0504. CGTATCGC was tested, and the “PBM E-score” value was -0.0235. For ATCGAAGA, the “PBM E-score” value was 0.0799. With GCCCCCAC the “PBM E-score” value was -0.415. With CTCCTCTC the “PBM E-score” value was -0.348. In the case of CACGCCTG, the “PBM E-score” value is reported as -0.0229. In the case of AAGTACCG, the “PBM E-score” value is reported as 0.0496. With CTGAACGA the “PBM E-score” value was -0.0948. For ATGCCGTA, the “PBM E-score” value was 0.0919. CGCATTGC was tested, and the “PBM E-score” value was 0.121. In the case of GCCTTACA, the “PBM E-score” value is reported as 0.194. In the case of CGGATCAC, the “PBM E-score” value is reported as 0.0757. For CCCTTTAA, the “PBM E-score” value was 0.185. In the case of TATACGGA, the “PBM E-score” value is reported as -0.0953. With AGACAGCC the “PBM E-score” value was -0.182. In the case of TATGCTAA, the “PBM E-score” value is reported as 0.192. With CCACCGTC the “PBM E-score” value was -0.3. For AGTAAGCG, the “PBM E-score” value was 0.0244. AAGTTCTC was tested, and the “PBM E-score” value was -0.0814. With AAGTTTGT the “PBM E-score” value was 0.202. In the case of CCATCCGC, the “PBM E-score” value is reported as -0.0478. In the case of GTCACATA, the “PBM E-score” value is reported as 0.163. In the case of AACCGATC, the “PBM E-score” value is reported as -0.0925. CACACACC was tested, and the “PBM E-score” value was 0.187. With CTCCGGCC the “PBM E-score” value was -0.413. For CTCTCTCA, the “PBM E-score” value was -0.174. With CATCTCAC the “PBM E-score” value was -0.117. With ACATCGTG the “PBM E-score” value was 0.217. With AAGGATTG the “PBM E-score” value was 0.0457. With AGCACCAA the “PBM E-score” value was -0.119. In the case of CGTCCCCA, the “PBM E-score” value is reported as -0.224. GGATTTGA was tested, and the “PBM E-score” value was -0.0425. With AATACGCC the “PBM E-score” value was 0.0351. AAAGCACT was tested, and the “PBM E-score” value was -0.127. For CTCTGCAC, the “PBM E-score” value was -0.0882. With CCGCTATC the “PBM E-score” value was -0.24. AAAGCGAC was tested, and the “PBM E-score” value was 0.0782. For GGGAATAA, the “PBM E-score” value was -0.0908. With ATAAAAAG the “PBM E-score” value was 0.19. ACGACCCG was tested, and the “PBM E-score” value was -0.119. With ACGGGGGA the “PBM E-score” value was -0.221. With CACGGTGC the “PBM E-score” value was -0.0221. With CCATCGCC the “PBM E-score” value was -0.261. For CCTATACA, the “PBM E-score” value was 0.248. With CATTATCG the “PBM E-score” value was -0.0306. For ATCGGTCA, the “PBM E-score” value was -0.274. In the case of GACGGTTA, the “PBM E-score” value is reported as -0.114. For ACAAGGAT, the “PBM E-score” value was 0.316. With GAATAATA the “PBM E-score” value was 0.168. ACGGAACC was tested, and the “PBM E-score” value was 0.183. CTACGTAC was tested, and the “PBM E-score” value was 0.251. In the case of CTGGTGAA, the “PBM E-score” value is reported as -0.0118. For ATACACAT, the “PBM E-score” value was 0.399. With GTACAGCA the “PBM E-score” value was 0.0142. ACAGATAC was tested, and the “PBM E-score” value was 0.217. With AGGTTTTC the “PBM E-score” value was 0.0423. With ACCTTAAA the “PBM E-score” value was -0.106. In the case of AATTCGGT, the “PBM E-score” value is reported as 0.00366. With AGCCTAGG the “PBM E-score” value was -0.315. GGTATCAC was tested, and the “PBM E-score” value was -0.148. In the case of GGCATCAC, the “PBM E-score” value is reported as -0.252. ACTTAATC was tested, and the “PBM E-score” value was 0.0112. With ACGATTGC the “PBM E-score” value was 0.145. With GTCACCTA the “PBM E-score” value was -0.131. With CTGTATAC the “PBM E-score” value was 0.247. With GTCAGTCA the “PBM E-score” value was -0.0821. With GCGCTGAC the “PBM E-score” value was -0.254. With CTGCACCC the “PBM E-score” value was -0.243. In the case of CGAGGAAA, the “PBM E-score” value is reported as -0.116. With ATGACGGC the “PBM E-score” value was -0.157. With CTATTTTC the “PBM E-score” value was 0.0227. CATAGTGA was tested, and the “PBM E-score” value was 0.00455. With CGCAGACA the “PBM E-score” value was 0.0313. In the case of ATGGTCAA, the “PBM E-score” value is reported as 0.122. CATCCCAG was tested, and the “PBM E-score” value was -0.193. In the case of ATATTCCA, the “PBM E-score” value is reported as 0.11. CATATACA was tested, and the “PBM E-score” value was 0.364. With GGATGCCC the “PBM E-score” value was -0.234. ACCGAGCT was tested, and the “PBM E-score” value was 0.0168. CTAGGTAC was tested, and the “PBM E-score” value was -0.0167. With TCGTTGAA the “PBM E-score” value was 0.1. With ATAACTCC the “PBM E-score” value was -0.162. With AAATCCTC the “PBM E-score” value was -0.126. For AAGGTACA, the “PBM E-score” value was 0.0862. In the case of CGCTAAAG, the “PBM E-score” value is reported as -0.129. For AAAAGTCA, the “PBM E-score” value was -0.0146. CAAAGAGA was tested, and the “PBM E-score” value was -0.11. In the case of ACTTGTGC, the “PBM E-score” value is reported as -0.205. In the case of AGATATGC, the “PBM E-score” value is reported as 0.0358. With CAGCAGAG the “PBM E-score” value was -0.278. With AAGCGTCC the “PBM E-score” value was -0.0595. GCTGGCCC was tested, and the “PBM E-score” value was -0.258. For GATTCGCA, the “PBM E-score” value was -0.136. In the case of CAATCATG, the “PBM E-score” value is reported as 0.173. ACCATGCA was tested, and the “PBM E-score” value was 0.106. For AGTTCTGG, the “PBM E-score” value was -0.135. With CAATCATC the “PBM E-score” value was -0.111. With GCGAGACA the “PBM E-score” value was -0.00716. CTTCGCCA was tested, and the “PBM E-score” value was 0.00811. With AAGCCCAC the “PBM E-score” value was -0.156. With ACCGCCAT the “PBM E-score” value was -0.0716. For ACGTCCCG, the “PBM E-score” value was -0.187. In the case of CAAAATCG, the “PBM E-score” value is reported as -0.0871. GATAGGCC was tested, and the “PBM E-score” value was -0.0107. With GATTACCC the “PBM E-score” value was 0.109. CCTAAGGC was tested, and the “PBM E-score” value was -0.272. In the case of GACCCGAA, the “PBM E-score” value is reported as -0.325. For AGCATTTA, the “PBM E-score” value was 0.0513. ACGCGTCC was tested, and the “PBM E-score” value was 0.105. In the case of CTGGCAGC, the “PBM E-score” value is reported as -0.236. For AGACTTGC, the “PBM E-score” value was -0.0754. For CGGATCCC, the “PBM E-score” value was -0.347. GTACTGAA was tested, and the “PBM E-score” value was 0.0605. In the case of ACAATGGC, the “PBM E-score” value is reported as 0.0406. For CTGGCCGA, the “PBM E-score” value was -0.378. AGGAGGTG was tested, and the “PBM E-score” value was -0.24. CGAGATCC was tested, and the “PBM E-score” value was -0.173. For ACAAGCTG, the “PBM E-score” value was 0.226. For GCGTAGCC, the “PBM E-score” value was 0.00466. With CATGGTCA the “PBM E-score” value was 0.19. In the case of AAGCAGTA, the “PBM E-score” value is reported as -0.0861. In the case of CACCTAAA, the “PBM E-score” value is reported as -0.0345. For ATCGAGAA, the “PBM E-score” value was 0.0444. For GGCTAATA, the “PBM E-score” value was -0.115. AGAAAGGG was tested, and the “PBM E-score” value was 0.0162. For CAAGCGCG, the “PBM E-score” value was -0.0446. For GTCTTCTA, the “PBM E-score” value was -0.0647. With CGCTTTGC the “PBM E-score” value was 0.0434. In the case of AGTCACGG, the “PBM E-score” value is reported as -0.171. AGGCGCAT was tested, and the “PBM E-score” value was -0.0396. With CTAATTCC the “PBM E-score” value was -0.0483. For CACACGCC, the “PBM E-score” value was 0.154. ATTTAAAA was tested, and the “PBM E-score” value was 0.0606. In the case of ATTGTGAC, the “PBM E-score” value is reported as 0.0491. GTCAAGAA was tested, and the “PBM E-score” value was 0.149. For GGGACCTA, the “PBM E-score” value was -0.236. With CGCACACG the “PBM E-score” value was -0.0448. For AGAGTCTA, the “PBM E-score” value was -0.0235. For CCCGGCAC, the “PBM E-score” value was -0.324. For CCCAAGTA, the “PBM E-score” value was -0.0965. With CTAGCAGA the “PBM E-score” value was -0.179. For AATCAAGG, the “PBM E-score” value was -0.191. With GCAGTTTA the “PBM E-score” value was 0.00455. For CTGAGGGA, the “PBM E-score” value was -0.299. For GTACGCAA, the “PBM E-score” value was 0.155. With GTGTCGGA the “PBM E-score” value was 0.00114. GGAGTGAA was tested, and the “PBM E-score” value was -0.0748. TCATTCAA was tested, and the “PBM E-score” value was 0.0446. AGGTGTTG was tested, and the “PBM E-score” value was -0.053. For TAGAAGCA, the “PBM E-score” value was 0.161. With ACCGCACC the “PBM E-score” value was -0.137. In the case of AACCATAA, the “PBM E-score” value is reported as 0.22. For AGCACCGC, the “PBM E-score” value was -0.218.
